# Some of the results follow.
# Assays:
# Experiment in all cases: glycan array binding signal (z-score within array); higher = stronger binding
# Conditions in all cases: glycan notation: IUPAC condensed, linker removed
# [1] = molecular target: GlcNAc(b1-2)Man(a1-3)[GlcNAc(b1-2)Man(a1-6)]Man(b1-4)GlcNAc(b1-4)[Fuc(a1-6)]GlcNAc
# Outline: (§1)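 Glycan array binding is given as a within-array Z-score, which can be read as non-binding when negative. The arrays, 3228 of them, came from the Consortium for Functional Glycomics database and were retained only where the protein sequence was available. Z-scores were averaged across arrays of the same protein sequence at different concentrations or buffers and across linkers.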
# [2] = molecular target: GlcNAc(b1-2)Man(a1-3)[GlcNAc(b1-4)][GlcNAc(b1-2)Man(a1-6)]Man(b1-4)GlcNAc(b1-4)GlcNAc
# Outline: as §1
# [3] = molecular target: GlcNAc(b1-2)Man(a1-3)[GlcNAc(b1-4)][GlcNAc(b1-2)Man(a1-6)]Man(b1-4)GlcNAc(b1-4)[Fuc(a1-6)]GlcNAc
# Outline: as §1
# [4] = molecular target: GlcNAc(b1-2)[GlcNAc(b1-4)]Man(a1-3)[GlcNAc(b1-2)Man(a1-6)]Man(b1-4)GlcNAc(b1-4)GlcNAc
# Outline: as §1
# [5] = molecular target: GlcNAc(b1-2)[GlcNAc(b1-4)]Man(a1-3)[GlcNAc(b1-4)][GlcNAc(b1-2)Man(a1-6)]Man(b1-4)GlcNAc(b1-4)GlcNAc
# Outline: as §1
# [6] = molecular target: GlcNAc(b1-2)[GlcNAc(b1-4)]Man(a1-3)[GlcNAc(b1-4)][GlcNAc(b1-2)[GlcNAc(b1-6)]Man(a1-6)]Man(b1-4)GlcNAc(b1-4)GlcNAc
# Outline: as §1
# [7] = molecular target: GlcNAc(b1-2)[GlcNAc(b1-4)]Man(a1-3)[GlcNAc(b1-4)][GlcNAc(b1-2)[GlcNAc(b1-6)]Man(a1-6)]Man(b1-4)GlcNAc(b1-4)[Fuc(a1-6)]GlcNAc
# Outline: as §1
# [8] = molecular target: GlcNAc(b1-2)[GlcNAc(b1-6)]Man(a1-6)[GlcNAc(b1-2)Man(a1-3)]Man(b1-4)GlcNAc(b1-4)GlcNAc
# Outline: as §1
# [9] = molecular target: GlcNAc(b1-2)[GlcNAc(b1-6)]Man(a1-6)[GlcNAc(b1-2)Man(a1-3)]Man(b1-4)GlcNAc(b1-4)[Fuc(a1-6)]GlcNAc
# Outline: as §1
# [10] = molecular target: GlcNAc(b1-2)[GlcNAc(b1-6)]Man(a1-6)[GlcNAc(b1-4)][GlcNAc(b1-2)Man(a1-3)]Man(b1-4)GlcNAc(b1-4)GlcNAc
# Outline: as §1
# GlcNAc(b1-3)Fuc = molecular target: GlcNAc(b1-3)Fuc
# Outline: as §1
# GlcNAc(b1-3)Gal = molecular target: GlcNAc(b1-3)Gal
# Outline: as §1
# [11] = molecular target: GlcNAc(b1-3)Gal(b1-3)GalNAc
# Outline: as §1
# GlcNAc(b1-3)Gal(b1-4)Glc = molecular target: GlcNAc(b1-3)Gal(b1-4)Glc
# Outline: as §1
# [12] = molecular target: GlcNAc(b1-3)Gal(b1-4)GlcNAc
# Outline: as §1
# [13] = molecular target: GlcNAc(b1-3)Gal(b1-4)GlcNAc(b1-2)Man(a1-3)[GlcNAc(b1-3)Gal(b1-4)GlcNAc(b1-2)Man(a1-6)]Man(b1-4)GlcNAc(b1-4)GlcNAc
# Outline: as §1
# [14] = molecular target: GlcNAc(b1-3)Gal(b1-4)GlcNAc(b1-2)Man(a1-3)[GlcNAc(b1-3)Gal(b1-4)GlcNAc(b1-2)Man(a1-6)]Man(b1-4)GlcNAc(b1-4)[Fuc(a1-6)]GlcNAc
# Outline: as §1
# [15] = molecular target: GlcNAc(b1-3)Gal(b1-4)GlcNAc(b1-2)[GlcNAc(b1-3)Gal(b1-4)GlcNAc(b1-6)]Man(a1-6)[GlcNAc(b1-3)Gal(b1-4)GlcNAc(b1-2)Man(a1-3)]Man(b1-4)GlcNAc(b1-4)GlcNAc
# Outline: as §1
# [16] = molecular target: GlcNAc(b1-3)Gal(b1-4)GlcNAc(b1-3)Gal(b1-4)GlcNAc
# Outline: as §1
# [17] = molecular target: GlcNAc(b1-3)Gal(b1-4)GlcNAc(b1-3)Gal(b1-4)GlcNAc(b1-2)Man(a1-3)[GlcNAc(b1-3)Gal(b1-4)GlcNAc(b1-3)Gal(b1-4)GlcNAc(b1-2)Man(a1-6)]Man(b1-4)GlcNAc(b1-4)GlcNAc
# Outline: as §1
# [18] = molecular target: GlcNAc(b1-3)Gal(b1-4)GlcNAc(b1-3)Gal(b1-4)GlcNAc(b1-2)Man(a1-3)[GlcNAc(b1-3)Gal(b1-4)GlcNAc(b1-3)Gal(b1-4)GlcNAc(b1-2)Man(a1-6)]Man(b1-4)GlcNAc(b1-4)[Fuc(a1-6)]GlcNAc
# Outline: as §1
# [19] = molecular target: GlcNAc(b1-3)Gal(b1-4)GlcNAc(b1-3)Gal(b1-4)GlcNAc(b1-2)[GlcNAc(b1-3)Gal(b1-4)GlcNAc(b1-3)Gal(b1-4)GlcNAc(b1-6)]Man(a1-6)[GlcNAc(b1-3)Gal(b1-4)GlcNAc(b1-3)Gal(b1-4)GlcNAc(b1-2)Man(a1-3)]Man(b1-4)GlcNAc(b1-4)[Fuc(a1-6)]GlcNAc
# Outline: as §1
# [20] = molecular target: GlcNAc(b1-3)Gal(b1-4)GlcNAc(b1-3)Gal(b1-4)GlcNAc(b1-3)Gal(b1-4)GlcNAc(b1-2)Man(a1-3)[GlcNAc(b1-3)Gal(b1-4)GlcNAc(b1-3)Gal(b1-4)GlcNAc(b1-3)Gal(b1-4)GlcNAc(b1-2)Man(a1-6)]Man(b1-4)GlcNAc(b1-4)GlcNAc
# Outline: as §1
# [21] = molecular target: GlcNAc(b1-3)Gal(b1-4)GlcNAc(b1-3)Gal(b1-4)GlcNAc(b1-3)Gal(b1-4)GlcNAc(b1-2)Man(a1-3)[GlcNAc(b1-3)Gal(b1-4)GlcNAc(b1-3)Gal(b1-4)GlcNAc(b1-3)Gal(b1-4)GlcNAc(b1-2)Man(a1-6)]Man(b1-4)GlcNAc(b1-4)[Fuc(a1-6)]GlcNAc
# Outline: as §1
# [22] = molecular target: GlcNAc(b1-3)Gal(b1-4)GlcNAc(b1-3)Gal(b1-4)GlcNAc(b1-3)Gal(b1-4)GlcNAc(b1-2)[GlcNAc(b1-3)Gal(b1-4)GlcNAc(b1-3)Gal(b1-4)GlcNAc(b1-3)Gal(b1-4)GlcNAc(b1-6)]Man(a1-6)[GlcNAc(b1-3)Gal(b1-4)GlcNAc(b1-3)Gal(b1-4)GlcNAc(b1-3)Gal(b1-4)GlcNAc(b1-2)Man(a1-3)]Man(b1-4)GlcNAc(b1-4)[Fuc(a1-6)]GlcNAc
# Outline: as §1
# [23] = molecular target: GlcNAc(b1-3)Gal(b1-4)GlcNAc(b1-3)Gal(b1-4)GlcNAc(b1-3)Gal(b1-4)GlcNAc(b1-3)Gal(b1-4)GlcNAc(b1-2)Man(a1-3)[GlcNAc(b1-3)Gal(b1-4)GlcNAc(b1-3)Gal(b1-4)GlcNAc(b1-3)Gal(b1-4)GlcNAc(b1-3)Gal(b1-4)GlcNAc(b1-2)Man(a1-6)]Man(b1-4)GlcNAc(b1-4)GlcNAc
# Outline: as §1
# [24] = molecular target: GlcNAc(b1-3)Gal(b1-4)GlcNAc(b1-3)Gal(b1-4)GlcNAc(b1-3)Gal(b1-4)GlcNAc(b1-3)Gal(b1-4)GlcNAc(b1-2)Man(a1-3)[GlcNAc(b1-3)Gal(b1-4)GlcNAc(b1-3)Gal(b1-4)GlcNAc(b1-3)Gal(b1-4)GlcNAc(b1-3)Gal(b1-4)GlcNAc(b1-2)Man(a1-6)]Man(b1-4)GlcNAc(b1-4)[Fuc(a1-6)]GlcNAc
# Outline: as §1
# [25] = molecular target: GlcNAc(b1-3)Gal(b1-4)GlcNAc(b1-3)Gal(b1-4)GlcNAc(b1-3)Gal(b1-4)GlcNAc(b1-3)Gal(b1-4)GlcNAc(b1-2)[GlcNAc(b1-3)Gal(b1-4)GlcNAc(b1-3)Gal(b1-4)GlcNAc(b1-3)Gal(b1-4)GlcNAc(b1-3)Gal(b1-4)GlcNAc(b1-6)]Man(a1-6)[GlcNAc(b1-3)Gal(b1-4)GlcNAc(b1-3)Gal(b1-4)GlcNAc(b1-3)Gal(b1-4)GlcNAc(b1-3)Gal(b1-4)GlcNAc(b1-2)Man(a1-3)]Man(b1-4)GlcNAc(b1-4)[Fuc(a1-6)]GlcNAc
# Outline: as §1
# [26] = molecular target: GlcNAc(b1-3)Gal(b1-4)GlcNAc(b1-3)Gal(b1-4)GlcNAc(b1-3)GalNAc
# Outline: as §1
# [27] = molecular target: GlcNAc(b1-3)Gal(b1-4)GlcNAc(b1-3)GalNAc
# Outline: as §1
# [28] = molecular target: GlcNAc(b1-3)Gal(b1-4)GlcNAc(b1-3)[GlcNAc(b1-3)Gal(b1-4)GlcNAc(b1-3)]GalNAc
# Outline: as §1
# [29] = molecular target: GlcNAc(b1-3)Gal(b1-4)GlcNAc(b1-6)[Gal(b1-3)]GalNAc
# Outline: as §1
# [30] = molecular target: GlcNAc(b1-3)Gal(b1-4)GlcNAc(b1-6)[GlcNAc(b1-3)Gal(b1-3)]GalNAc
# Outline: as §1
# [31] = molecular target: GlcNAc(b1-3)Gal(b1-4)GlcNAc(b1-6)[GlcNAc(b1-3)]Gal(b1-4)GlcNAc
# Outline: as §1
# GlcNAc(b1-3)GalNAc = molecular target: GlcNAc(b1-3)GalNAc
# Outline: as §1
# GlcNAc(b1-3)Man = molecular target: GlcNAc(b1-3)Man
# Outline: as §1
# [32] = molecular target: GlcNAc(b1-3)[GlcNAc(b1-4)][GlcNAc(b1-6)]GlcNAc
# Outline: as §1
binder,measurement,setting,value
"UEA-I (Ulex europaeus), P22972 (protein) SDDLSFKFKNFSQNGKDLSFQGDASVIETGVLQLNKVGNNLPDETGGIARYIAPIHIWNCNTGEVASFITSFSFFMETSANPKAATDGLTFFLAPPDSPLRRAGGYFGLFEDTKDNDSSYQTVAVEFDTIGSPVNFDDPGFPHIGIDVNRVKSINAERWNKRYGLNNVANVEIIYEASSKTLTASLTYPSDQTSISVTSIVDLKEILPEWVSVGFSGGTYIGRQATHEVLNWYFTSNLINTNS",glycan array binding signal (z-score),[1],-0.145
same,glycan array binding signal (z-score),[2],-0.101
same,glycan array binding signal (z-score),[3],-0.076
same,glycan array binding signal (z-score),[4],-0.205
same,glycan array binding signal (z-score),[5],-0.166
same,glycan array binding signal (z-score),[6],-0.221
same,glycan array binding signal (z-score),[7],-0.278
same,glycan array binding signal (z-score),[8],-0.171
same,glycan array binding signal (z-score),[9],-0.211
same,glycan array binding signal (z-score),[10],-0.211
same,glycan array binding signal (z-score),GlcNAc(b1-3)Fuc,-0.172
same,glycan array binding signal (z-score),GlcNAc(b1-3)Gal,-0.215
same,glycan array binding signal (z-score),[11],-0.194
same,glycan array binding signal (z-score),GlcNAc(b1-3)Gal(b1-4)Glc,-0.204
same,glycan array binding signal (z-score),[12],-0.206
same,glycan array binding signal (z-score),[13],-0.128
same,glycan array binding signal (z-score),[14],0.025
same,glycan array binding signal (z-score),[15],-0.035
same,glycan array binding signal (z-score),[16],-0.21
same,glycan array binding signal (z-score),[17],0.226
same,glycan array binding signal (z-score),[18],-0.122
same,glycan array binding signal (z-score),[19],-0.152
same,glycan array binding signal (z-score),[20],-0.196
same,glycan array binding signal (z-score),[21],0.034
same,glycan array binding signal (z-score),[22],-0.143
same,glycan array binding signal (z-score),[23],-0.054
same,glycan array binding signal (z-score),[24],-0.137
same,glycan array binding signal (z-score),[25],-0.181
same,glycan array binding signal (z-score),[26],-0.201
same,glycan array binding signal (z-score),[27],-0.237
same,glycan array binding signal (z-score),[28],-0.162
same,glycan array binding signal (z-score),[29],-0.246
same,glycan array binding signal (z-score),[30],-0.232
same,glycan array binding signal (z-score),[31],-0.021
same,glycan array binding signal (z-score),GlcNAc(b1-3)GalNAc,-0.172
same,glycan array binding signal (z-score),GlcNAc(b1-3)Man,-0.085
same,glycan array binding signal (z-score),[32],-0.184

# — the supplement of paper PMC8728848
